The source of these data is the supplement of paper PMC11417369.

This is one part of the list.

In the assay the test system is PF3D7_0420300 AP2 domain 1 (GST-tagged). In words: gcPBM binding intensity (ln(normalized median fluorescence intensity)); higher = stronger DNA binding. In outline: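 GST-fused DNA-binding domains of P. falciparum, expressed in E. coli, were applied at about 25 μg on average for 1 h to an Agilent 4 × 180k array of primer-extended double-stranded 36-bp intergenic genomic probes and negative controls. Binding intensity is the highest Masliner-normalised natural-log median intensity across replicate spots of either probe orientation, measured with Alexa488 anti-GST antibody and a 488 nm scan.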
Regarding “AAAAATTACCCATCCATACACACATATTTTTTTTAA [CACACA_site2190]”, the “gcPBM binding intensity (ln)” value was found to be 9.58.

For “TTTTTAGTTAATTAAACACACAAAAAAAAAAATAAA [CACACA_site3930]”, the “gcPBM binding intensity (ln)” value turned out to be 9.24.

“AATATTTTTATATATATACACACTTACATATATATA [CACACA_site3609]”: the “gcPBM binding intensity (ln)” value turned out to be 9.5.

Take “ATAATATTGTGGTATACACACCTTACAAAAAGGTAC [CACACA_site5582]”: the “gcPBM binding intensity (ln)” value is 9.46.

“CACACGTATATATATACACACTAAAATACCCAGACA [CACACA_site6142]”: the “gcPBM binding intensity (ln)” value stood at 9.71.

For the sequence “TATATTTGGTTTCATTCATTTTTATAGAAATCTCAA [CACACA_negctrl_site1412]”, the “gcPBM binding intensity (ln)” value came out at 9.07.

For “TATTTTTTTACATATTGTACATAATATAAAACTTAC [XGTACX_site8273]”, the “gcPBM binding intensity (ln)” value was 9.12.

As to “ATTTTTTCATATTCTACACACGTGAACAAATGTGTC [CACACA_site3007]”, the “gcPBM binding intensity (ln)” value was 9.46.

Turning to “ATATAATAGAAGTGTACACACATATTTATGGGTGTA [CACACA_site5686]”, the “gcPBM binding intensity (ln)” value is 9.59.

As to “AATATTTTGTTATTTATTTAATCTAATATTATGATA [GTGCAC_negctrl_site258]”, the “gcPBM binding intensity (ln)” value came to 9.17.

As to “TCAAGAATTATATAAACACACATACATACACCCATA [CACACA_site5126]”, the “gcPBM binding intensity (ln)” value turned out to be 9.81.

Regarding “GAATTCAACAAAAAAAGTACTCTACATAAAATAATG [XGTACX_site175]”, the “gcPBM binding intensity (ln)” value turned out to be 9.12.

Take “CCATGCATACATTCTTGTACACATTTCTATTATGAG [XGTACX_site39]”: the “gcPBM binding intensity (ln)” value was determined as 9.27.

For the sequence “ATATTGATGTATTGTTTTTTTTTTTTCTTTTTTTTT [CACACA_negctrl_site1238]”, the “gcPBM binding intensity (ln)” value amounted to 9.57.

“TACTCACAATGGGGTCTACAAAAAAAAAAAAATAAA [XGTACX_negctrl_site229]”: the “gcPBM binding intensity (ln)” value is 8.65.

Take “TTATAAAAGGACTTCTGTACGAATTTTTTTTAATAA [XGTACX_site1411]”: the “gcPBM binding intensity (ln)” value is 8.78.

In the case of “GAACGAAACTTTCTTACACACATTGAAATTTTTTTC [CACACA_site1779]”, the “gcPBM binding intensity (ln)” value was found to be 9.62.

For “ATTAATTTTATATATGCACACAAAATATGTTCATAT [CACACA_site9350]”, the “gcPBM binding intensity (ln)” value came out at 9.43.

As to “ATGATCATAAAACACACACACAAAAAAAAAAAAAAA [CACACA_site1805]”, the “gcPBM binding intensity (ln)” value was 9.51.

On to “AATAATATTTATTTTTGTACATATGTGCATTATAAA [XGTACX_site3682]”, for which the “gcPBM binding intensity (ln)” value is 9.1.

Take “TTATAATAAACCTATACACACATAAATAAATAAATA [CACACA_site2581]”: the “gcPBM binding intensity (ln)” value turned out to be 9.71.

Consider “TATGTATATATTTGTGCACACCAAAGTTTGATTTTA [CACACA_site1861]”, for which the “gcPBM binding intensity (ln)” value is 9.53.

In the case of “ATATAGACACACACATGTACATATGCCAACGTGATA [XGTACX_site3828]”, the “gcPBM binding intensity (ln)” value worked out at 9.61.

On to “ATAAACTGAGTGGTTACACACAAAACCAATAACTTT [CACACA_site7601]”, for which the “gcPBM binding intensity (ln)” value turned out to be 9.76.

As for “ACTATATAATATAATATATTATAATATATTATATTA [GTGCAC_negctrl_site140]”, the “gcPBM binding intensity (ln)” value came to 9.09.

As to “TTCTTAAAATATGAAAGTACATAGGCATTATATATT [XGTACX_site8400]”, the “gcPBM binding intensity (ln)” value was 9.03.

Consider “TATGCAAGGAACCACACACACACACCGAAATGTATA [CACACA_site4573]”, for which the “gcPBM binding intensity (ln)” value was 10.1.

As for “TTTTTTATTAGTATCTGTACACATTGGTATTTGTAT [XGTACX_site6682]”, the “gcPBM binding intensity (ln)” value stood at 9.5.

Take “AATAAATAAATATATATATATATATAATATCATAAA [CACACA_negctrl_site337]”: the “gcPBM binding intensity (ln)” value worked out at 9.08.

As for “ATATATATTTATGTATCACACACAAAAAAAAAAAAT [CACACA_site7973]”, the “gcPBM binding intensity (ln)” value was 9.66.

For “AGTTTATTTATATACACACACATATAAATATTATAG [CACACA_site6522]”, the “gcPBM binding intensity (ln)” value stood at 9.72.

As for “TTCTTTAAAATATTATGTACACATTGCGAACAGTTT [XGTACX_site5418]”, the “gcPBM binding intensity (ln)” value was determined as 9.17.

Take “TATATATATATATATTGTACTTATGTTTATATTCAT [XGTACX_site6258]”: the “gcPBM binding intensity (ln)” value was 9.37.

For “TATTTATGTAGATACACACCCATGTTATATGGAGGT [CACACA_site3461]”, the “gcPBM binding intensity (ln)” value amounted to 9.32.

Turning to “TTTCTTTTTTTTTTTATTTACCTGAATTATGTATTA [TGCATGCA_negctrl_site345]”, the “gcPBM binding intensity (ln)” value came out at 9.24.

On to “GCTTGTTCAAAAATGAGTACATACAAATAGTTGTAT [XGTACX_site1770]”, for which the “gcPBM binding intensity (ln)” value was 9.07.

Regarding “CCTTCATCATATTTAACACACAGAGAAAAAGCGGAT [CACACA_site274]”, the “gcPBM binding intensity (ln)” value is 9.72.

For the sequence “AAAAAAAAAAAAAAAAAAACCACAAACAAATATGAA [TGCATGCA_negctrl_site34]”, the “gcPBM binding intensity (ln)” value is 9.49.

For “TCCTTTCTTTTTTAAACATGCATATGTAATATAAAT [TGCATGCA_site979]”, the “gcPBM binding intensity (ln)” value came out at 8.96.

As to “TTTACATACAAATTAACACACATATAGAAAAGAGAA [CACACA_site1889]”, the “gcPBM binding intensity (ln)” value was found to be 9.59.

For “CTCGTATATATAATACGTACATATTATATATATATA [XGTACX_site1704]”, the “gcPBM binding intensity (ln)” value amounted to 9.19.

As to “AAAAAAAATAAACACACACACATACCCATAAATATA [CACACA_site5980]”, the “gcPBM binding intensity (ln)” value worked out at 10.1.

In the case of “TTTTAAAATATATTTGTATATATATATATATATATA [XGTACX_negctrl_site536]”, the “gcPBM binding intensity (ln)” value was 8.94.

With “ATAATATAATAATACACACTCATTATATATATAAAG [CACACA_site3956]”, the “gcPBM binding intensity (ln)” value was determined as 9.52.
